The results in this text go back to publication PMC2191977 (The Journal of Experimental Medicine, 1995).

One experiment has as its target T1, B7 P174A (mouse, UniProt Q00609 38-306, P174A).
T1 sequence (looked up): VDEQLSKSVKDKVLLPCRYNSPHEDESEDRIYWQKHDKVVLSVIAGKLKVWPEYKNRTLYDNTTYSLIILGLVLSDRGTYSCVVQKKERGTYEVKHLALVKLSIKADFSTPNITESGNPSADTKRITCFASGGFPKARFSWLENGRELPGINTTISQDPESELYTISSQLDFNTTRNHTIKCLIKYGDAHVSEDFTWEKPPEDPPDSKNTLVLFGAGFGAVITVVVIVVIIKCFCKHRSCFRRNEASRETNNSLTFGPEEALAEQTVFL
The experiment in a line: flow cytometry on cells.

The target in another experiment is T2, B7 S177A (mouse, UniProt Q00609 38-306, S177A).
T2 sequence (looked up): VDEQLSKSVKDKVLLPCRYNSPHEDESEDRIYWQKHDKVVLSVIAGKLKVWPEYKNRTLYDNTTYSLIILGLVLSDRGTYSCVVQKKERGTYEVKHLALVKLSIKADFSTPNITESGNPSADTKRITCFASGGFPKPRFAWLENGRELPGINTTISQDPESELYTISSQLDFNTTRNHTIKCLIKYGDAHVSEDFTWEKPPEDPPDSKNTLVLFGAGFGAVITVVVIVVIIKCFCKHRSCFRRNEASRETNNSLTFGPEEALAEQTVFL
The experiment in a line: flow cytometry on cells. (In general: In flow cytometry, cells or beads pass a laser one at a time.)

B1: CTLA4Ig (Fc fusion)
chain: not shown
In the case of B1, the “% wild-type B7 binding (normalised to anti-B7 mAb 10.16A.1)” value with B7 P174A came out at 11%; with B7 S177A, 56%. Besides, the “MF (mean fluorescence, control subtracted)” value amounted to 61 MF with B7 P174A and 476 MF in the experiment with B7 S177A.
